Several values for one entry are separate records, joined by “and”; a condition that tells them apart may be missing. Equal values may be shown once. The shares of active, inactive and inconclusive entries below differ from those in the screen. Potencies beside an inconclusive call are fits to weak or partial responses and may not hold up. Activity calls are given as the source filed them. Calls follow the shape of the dose curve; as a rule, active = well fitted curve in the direction sought with a large enough effect in the repeat runs; inconclusive = weak or mixed curves; inactive = no such curve, though single readings can be large; an effect the other way counts as inactive or inconclusive.
Tests used:
[1] = A CellTox Green Cytotoxicity Assay to monitor cytotoxicity in HepG2 cells - 32 hour (AID 1224883); conditions: CellTox Green fluorescence; series mostly up to 76.8 µM; also: nearly all actives have a fitted effect of over 50% in size
In short: (§1)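 HepG2 cells were seeded together with the CellTox Green dye at 600 cells/well, left 5 h at 37 C/5% CO2, then given compounds in DMSO. Fluorescence from dye bound to dead-cell DNA was read repeatedly over 40 h of treatment at 37 C.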

[2] = qHTS RealTime-Glo MT Cell Viability Assay in HepG2 cells - 16 hour (AID 1224885); conditions: RealTime-Glo luminescence; series mostly up to 76.8 µM; also: nearly all actives have a fitted effect of over 50% in size
In short: (§2)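 Compound treatment began 5 h after plating HepG2 cells (600/well) with NanoLuc luciferase and prosubstrate. Plates stayed at 37 C for 40 h; luminescence was captured at six time points, 0 h through 40 h.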

[3] = qHTS RealTime-Glo MT Cell Viability Assay in HEK293 cells - 24 hour (AID 1224886); conditions: RealTime-Glo luminescence; series mostly up to 76.8 µM; also: nearly all actives have a fitted effect of over 50% in size
In short: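 Quantitative high-throughput screen of the Tox21 10K library in HEK293: cells and RealTime-Glo reagents plated together, compound added at 5 h, luminescence monitored through 40 h at 37 C.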

[4] = qHTS RealTime-Glo MT Cell Viability Assay in HepG2 cells - 0 hour (AID 1224889); conditions: RealTime-Glo luminescence; series mostly up to 76.8 µM; also: nearly all actives have a fitted effect of over 50% in size
In short: as §2

[5] = qHTS RealTime-Glo MT Cell Viability Assay in HEK293 cells - 8 hour (AID 1224887); conditions: RealTime-Glo luminescence; series mostly up to 76.8 µM; also: nearly all actives have a fitted effect of over 50% in size
In short: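 HEK293 cells mixed with RealTime-Glo reagents (NanoLuc plus cell-permeant prosubstrate) at 600 cells/well, preincubated 5 h at 37 C/5% CO2, then given 23 nL compound in DMSO. Nonlytic luminescence from viable cells was read at 0, 8, 16, 24, 32 and 40 h.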

[6] = qHTS assay to identify small molecule antagonists of the estrogen receptor alpha (ER-alpha) signaling pathway using the BG1 cell line in the presence of 0.1 nM 17-beta-estradiol - cell viability counter screen (AID 1259241); conditions: VM7Luc4E2 (BG1) viability, CellTiter-Fluor protease, 22 h, 0.1 nM estradiol agonist added; series mostly up to 92.4 µM; also: nearly all actives have a fitted effect of over 40% in size
In short: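 Following 5 days in phenol red-free medium with charcoal-stripped serum, VM7Luc4E2 cells received test compounds alongside 0.1 nM 17beta-estradiol (final) at 37C for 22 hr. Live cells were then quantified via protease-substrate fluorescence.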

[7] = A CellTox Green Cytotoxicity Assay to monitor cytotoxicity in HEK293 cells - 16 hour (AID 1224888); conditions: CellTox Green fluorescence; series mostly up to 76.8 µM; also: nearly all actives have a fitted effect of over 35% in size
In short: (§3)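 HEK293 cells premixed with CellTox Green dye were seeded at 600 cells/well and left 5 h at 37 C/5% CO2 before pin transfer of 23 nL compound in DMSO. Fluorescence from dye bound to dead-cell DNA was read during 40 h treatment.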

[8] = A CellTox Green Cytotoxicity Assay to monitor cytotoxicity in HepG2 cells - 8 hour (AID 1224890); conditions: CellTox Green fluorescence; series mostly up to 76.8 µM; also: nearly all actives have a fitted effect of over 45% in size
In short: as §1

[9] = A CellTox Green Cytotoxicity Assay to monitor cytotoxicity in HEK293 cells - 8 hour (AID 1224884); conditions: CellTox Green fluorescence; series mostly up to 76.8 µM; also: nearly all actives have a fitted effect of over 35% in size
In short: as §3
Potency is read from the fitted curve at half-maximal effect; tags tell the direction and shape of the fitted curve.

## COc1cc(-c2nc(NC(=O)c3cc4cc(C)cc(C)c4n3CC(=O)O)sc2CCC2CCCCC2)c(OC)cc1Cl
[1]
  Potency: inconclusive: 50.4 µM [activator, single point]
[2]
  Potency: active: 35.7 µM
[3]
  Potency: active: 40 µM
[4]
  Potency: inconclusive: 25.2 µM [cytotoxic, partial curve]

## O=C(O[C@@H]1Cc2c(O)cc(O)cc2O[C@@H]1c1cc(O)c(O)c(O)c1)c1cc(O)c(O)c(O)c1
[1]
  Potency: inconclusive: 4.72 µM [activator, partial curve, poor fit]
[2]
  Potency: inconclusive: 43.8 µM [cytotoxic, partial curve, poor fit] and inconclusive: 23.7 µM [cytotoxic, partial curve]
[3]
  Potency: inconclusive: 55.1 µM [cytotoxic, partial curve, poor fit] and active: 10.6 µM
[5]
  Potency: inconclusive: 39 µM [cytotoxic, partial curve, poor fit] and inconclusive: 16.8 µM [cytotoxic, full curve]
[6]
  Potency: inconclusive: 48.7 µM [cytotoxic, partial curve] and inconclusive: 46.8 µM [cytotoxic, partial curve]

## COC(=O)C1=C(C)NC(C)=C(C(=O)OCC(C)C)C1c1ccccc1[N+](=O)[O-] (stereo unspecified)
[1]
  Potency: inconclusive: 54.9 µM [activator, single point]
[2]
  Potency: inconclusive: 23.9 µM [cytotoxic, partial curve]
[3]
  Potency: active: 24.5 µM and inconclusive: 23.9 µM [cytotoxic, partial curve]
[5]
  Potency: inconclusive: 21.3 µM [cytotoxic, partial curve]
[4]
  Potency: active: 21.9 µM and inconclusive: 10.7 µM [cytotoxic, partial curve]

## CCCCCCCCCCCCCCCCCCNC(=O)OC1CCN(C(=O)OC[C@H](COC(=O)N(Cc2cccc[n+]2CC)C(=O)c2ccccc2OC)OC)CC1
[1]
  Potency: inconclusive: 26.8 µM [activator, single point]
[2]
  Potency: inconclusive: 26.8 µM [cytotoxic, single point]
[3]
  Potency: active: 10.7 µM
[7]
  Potency: inconclusive: 26.8 µM [activator, single point]
[8]
  Potency: inconclusive: 26.8 µM [activator, single point]

## CC(C)(c1cc(Br)c(OCCO)c(Br)c1)c1cc(Br)c(OCCO)c(Br)c1
[1]
  Potency: inconclusive: 47.9 µM [activator, single point]
[2]
  Potency: inconclusive: 38 µM [cytotoxic, partial curve, poor fit]
[5]
  Potency: inconclusive: 19.1 µM [cytotoxic, partial curve]

## CSc1ccc2c(c1)C(N1CCN(C)CC1)Cc1ccccc1S2 (stereo unspecified)
[1]
  Potency: active: 23.9 µM
[2]
  Potency: inconclusive: 23.9 µM [cytotoxic, partial curve]
[3]
  Potency: inconclusive: 26.8 µM [cytotoxic, single point]
[7]
  Potency: inactive
[4]
  Potency: inconclusive: 19 µM [rising, partial curve]
[8]
  Potency: inconclusive: 26.8 µM [activator, single point]

## Cc1cc(CCN2CCN(c3nsc4ccccc34)CC2)cc2c1NC(=O)CC2(C)C
[1]
  Potency: inconclusive: 54.9 µM [activator, single point]
[9]
  Potency: inconclusive: 54.9 µM [activator, single point]
[5]
  Potency: active: 21.9 µM
[7]
  Potency: active: 49 µM

## Cc1cc(O)c(Cl)c(C)c1Cl
[1]
  Potency: active: 54.9 µM
[9]
  Potency: inconclusive: 54.9 µM [activator, single point]
[7]
  Potency: inconclusive: 61.6 µM [activator, single point]
[4]
  Potency: inactive
[8]
  Potency: inconclusive: 54.9 µM [activator, single point]

## CCCCC(CC)CN=C(N)NC(N)=NCCCCCCN=C(N)NC(N)=NCC(CC)CCCC (stereo unspecified)
[1]
  Potency: active: 8.49 µM
[9]
  Potency: active: 13.4 µM
[4]
  Potency: inconclusive: 8.49 µM [rising, partial curve]

## O=C(Nc1ccccc1SSc1ccccc1NC(=O)c1ccccc1)c1ccccc1
[1]
  Potency: inconclusive: 55.2 µM [activator, single point]
[2]
  Potency: inconclusive: 43.6 µM [cytotoxic, partial curve]
[3]
  Potency: inconclusive: 62 µM [cytotoxic, single point] and inconclusive: 61.6 µM [cytotoxic, single point]
[5]
  Potency: inconclusive: 55.2 µM [cytotoxic, single point] and inconclusive: 61.6 µM [cytotoxic, single point]
[8]
  Potency: inconclusive: 61.6 µM [activator, single point]
[6]
  Potency: inconclusive: 19.4 µM [cytotoxic, full curve]

From PubChem BioAssay (Tox21)
